Experimental data: the supplement of paper PMC10126150
Sequences with one replicate were seen in a single cluster, so their values are uncertain.

System: ATP
Test: switch fluorescence ratio, 500 uM ATP over buffer (Cy3 cluster intensity, sum of 5 cycles each) (fold (ratio)); higher = stronger signal-on switching upon ATP binding; sequences stand for … in TCGTCGGCAGCGTCAGATGTGTATAAGAGACAGTTTTTTTTTTTTTTTTTTTTTTTTT…TC
Conditions: aptamer strand: ATP DNA aptamer (quencher-CACCTGGGGGAGTATTGCGGAGGAAGG + anchor), 100 nM annealed; ATP concentration: 500 uM; one replicate
Procedure, shortened: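 Exposure to 500 uM ATP lasted 15 min at 22 °C before imaging, and a selection-buffer image was taken beforehand, for Cy3-labelled switching-strand clusters on a modified Illumina MiSeq flow-cell annealed to 100 nM quencher-labelled ATP aptamer. Five buffer/ATP cycles were run with NaOH stripping and re-annealing between them. The fluorescence ratio per cluster is summed target-cycle over summed buffer-cycle Cy3 intensity, averaged per switch-domain sequence. Clusters outside 100-1000 RFU were excluded.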

Sequence	switch fluorescence ratio
GCATTATGTA	1.03
ATTGCGCGCC	1
TAAGAAGATA	0.975
GCGAACACGA	1.15
GTTGTATGAG	1
TGGGGTAGT	0.982
AGATCGTCGT	1.03
CGGTTGTACG	0.995
CTCCCCTTTG	1.41
TTTAATGGG	0.977
CCTAGAGCCC	1.08
GCGCCCCGAG	0.986
GATGTAAGCG	1.03
TCGGGGAGCC	1
ATGAACTAGC	1.03
AACGTGACTG	1.11
ACATCCGGAA	4.57
TATCAACGGC	0.967
CTTCTAATT	0.983
CTTCCCATAT	1.38
TCACCGACAA	3.04
AGACAGTGTT	0.998
CAAGTCTGAG	0.945
ATTATTGCCT	0.987
CCCCTGTTCT	0.982
CGATGAGCCT	0.999

Sequence	switch fluorescence ratio
ATAGAAGTTC	1.02
TATTACTTG	0.991
TTATGACGT	1.02
ACTATTAATG	1.01
TTTCGTGACA	1.04
CTAACATGAG	1.07
ACCGGGGAAC	1.06
TTCTGCGGGT	1.06
TAGGCAGGAT	1.09
TACAACGAGG	1.02
AGACGTGCC	0.977
AAGAGCTCTA	0.997
TATTTGCGGC	1.02
GGCCGGGCTC	0.98
CCATTGTGCT	1.02
CATTGTGGGG	0.99
CGACAGGCG	1.04
GTTATGAGTG	0.993
GTTTTACAGC	0.993
CAGTTCGCGT	1.02
CACTGTTACA	1.35
GCAGTAGATT	1.01
AAGTTATTC	1.04
AGACAGCCCT	1.1
ATTTCTGGG	0.991
GACACAGTCG	1.03

Sequence	switch fluorescence ratio
CGTTTTGA	1.01
CAATTTAGCT	1.01
GGGACGAAAT	1.41
GGGCATCTCT	0.976
GTGTTTACGT	0.98
CATATTCGAT	0.963
AGGGTACCA	1.02
TTTTCTCCTG	1.06
GGGACCGACG	1.13
AGCTTCTCAG	1.04
GACTACGTCT	0.937
TCAATATCTC	1.1
AAGGGTCGGG	0.992
TATAGGCTTG	0.976
TATAGGCATG	1.09
GCGCTACGTT	1.04
CCGCACGGCG	1.31
ATCGGCTATA	1.11
CCTATAAGTT	0.946
GAACGCCCCG	1.09
CAGTCCTCCT	1.15
GGACAGATTT	0.979
TTGACTATGG	1.06
TGCTTACACT	1.16
TGGGACACCT	1.08
GTGAGCTTTT	0.966

Sequence	switch fluorescence ratio
TACAGGCGTC	1.05
CCTGGCGCTC	2.28
GTATCAATAA	0.997
CGAGGGTTAG	0.964
CTTGATTGTC	0.997
GTCAGGTGTA	1.12
AACTACAATG	1.06
TTTAAGAACG	1
TATTCTAAAC	1.03
ACGTCCATGT	1
GGTGTCTCGA	1.05
GCTATTGCAA	1.04
CCCTGGCTTA	1.02
GTATATTTGT	0.956
TCAGGTGTGG	1.11
ATATTAATT	0.963
TTACCGGCTT	1.03
TCTATTGGTC	0.985
CTGGAATCAT	1.01
GGGATACAGT	1.03
GCCTGCATCC	1.26
GGATTTCGTT	0.942
GGCACCTCAT	1.03
GATGTCTGGA	0.998
AAGCGACTGC	1.07
GGACACGAGT	1.02

Sequence	switch fluorescence ratio
AATACGGACT	1.38
GATCGATGCC	0.993
GGCGTATCGT	1.01
GCGGAATCAA	1.02
CGAAAACACA	0.951
TAAACGCAGT	1.05
GGGGCGAGGA	0.931
GTAGAACTTA	1.05
TTGATGGCGC	0.984
TATAGGTGGT	0.991
CGAGCATGAT	1.12
TGGCCTGGG	0.987
TACTAAGGGC	1.01
CATTTTCTTT	0.981
AGTATTTGCA	0.947
TCGGCACTG	1.13
AAGAACGGTG	0.999
ACCAATTTCC	1.15
CCGGGGGTAA	1.11
ACAAATACCG	1.02
AAGGGGACG	1.02
CTTGGGCAAG	1.01
CGCATTGAAA	1.06
GTCTGCCATG	1.01
CAAACGTGCG	1.04
AGTAAAACGG	1.03

Sequence	switch fluorescence ratio
CGGAGGGCGA	1.09
TGTGTGCT	1.02
CCACCTCTGA	1.08
GTCGCAGAAG	0.955
GACGGGATTC	1.2
GTATTCACGG	1.02
GCATGCAGGT	1.02
AGGCGACCTC	1.06
CTAGGTATAC	1.3
ACGTCTGTAT	1.03
CCAGTTCCA	1.02
ATAAGAGGGA	0.989
GAAAATGGAC	1.03
GTTGGGCCCG	0.996
TCGTATGGG	0.958
ATCGAATTCC	1.03
GTATTTTTG	1.05
CCAATTTAAT	1.03
CAGATAGGTA	1.01
ATTACATCAT	0.948
TTGGGCCAGC	0.955
TAGGTTGCTG	0.988
ATGAAAGATG	1.02
GCATCCCACC	1.12
CGATGATACA	1.02
TTTGAAGACC	1.26

Sequence	switch fluorescence ratio
GTAGGTCTGA	0.964
GTCTCCCGCA	2.31
CTTTTTGATA	0.987
TATGTCCGTG	0.987
GAGCGGAGAG	1
GGTGCTGCCC	0.968
GGGGACGTAG	0.963
TATGTACTGC	1.07
TAACGATCAT	0.995
CCCTTTAGGA	1.01
TGAACCCAGG	3.16
CACGTAGGTA	1.1
AACCGTCGGA	1.02
CGTTACATTT	0.959
GACGAAACAG	1.12
TCCAAGCGTT	1.22
CATTAAGAAA	1.02
ACTCGATGGG	1
GCGTAGGGCT	0.995
CACGAACGGG	1.45
TGTTCGTGCG	1.04
GCAGTAGGTT	0.982
GACTTCAGCA	1.15
GTGGTATACT	1.04
TGATTTAT	1
CGCCAGATCT	0.983

Sequence	switch fluorescence ratio
GGCTGTCCCG	0.964
CTCTTCTTGG	0.965
CGGTCGTCTT	1.01
TGGCAACCAG	0.973
CTTAGACACG	0.92
GCGTTAGACC	0.989
GTGCCCTATT	1.04
CTTAAAGGAG	1.01
ATCTTGTCAG	1
ATGCGAACAG	0.994
GCCATTCTCA	1
AGCCTCTAAC	0.996
TATTATCGAC	0.967
TTAAGTCGTG	0.997
ACACATTAC	1.8
CAAGATCGAA	0.984
ATAGGACGTC	1.02
GTTGATTCAA	1
TTTCCGTCAG	1.09
